The record followed here is the supplement of paper PMC12355420.

Structures can show the parent of a compound that is named as a salt. The list shows a part of the results. Many values rest on one well or one pass, so single values are uncertain.
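Also: primary screen of an FDA-approved drug library in HeLa reporter cells in 96-well format, CellMask signal normalized to DMSO-treated wells set as 1, under 0.5 deemed highly cytotoxic.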

The assay concerns HeLa VPS33A reporter cells. As to the kind of experiment: relative cell viability (CellMask signal) vs DMSO (fraction of DMSO); HeLa model of a glycosaminoglycan (GAG) storage disease; KI is knock-in and KO knock-out; SDC1 is syndecan 1; higher = less cytotoxic. The conditions noted are these: 50 µM; 24 h.
`COc1cc2ncnc(Nc3ccc(F)c(Cl)c3)c2cc1OCCCN1CCOCC1` [Gefitinib (ZD1839)]: the relative cell viability stood at 1.34.

As to `CC(C)NCC(O)COc1ccc(CCOCC2CC2)cc1` (stereo not given) [Betaxolol], the relative cell viability was determined as 1.2.

Regarding `CN1CCC(=C2c3ccccc3CC(=O)c3sccc32)CC1` [Ketotifen Fumarate], the relative cell viability turned out to be 1.12.

As to `C[C@H]1COc2c(N3CCN(C)CC3)c(F)cc3c(=O)c(C(=O)O)cn1c23` [Levofloxacin], the relative cell viability is 1.05.

`C=C1CC[C@H](O)C/C1=C/C=C1\CCC[C@]2(C)[C@@H]([C@H](C)CCCC(C)(C)O)CC[C@@H]12` [Calcifediol] showed a relative cell viability of 0.895.

As to `CC(C)(C)NC(=O)N[C@H](C(=O)N1C[C@H]2[C@@H]([C@H]1C(=O)NC(CC1CCC1)C(=O)C(N)=O)C2(C)C)C(C)(C)C` (stereo not given in full) [Boceprevir], the relative cell viability was 0.862.

Compound `CNC[C@H](O)c1cccc(O)c1` [Phenylephrine HCl] yielded a relative cell viability of 1.23.

The compound `CCOc1nc2cccc(C(=O)O)c2n1Cc1ccc(-c2ccccc2-c2noc(=O)[nH]2)cc1` [Azilsartan] showed a relative cell viability of 1.01.

In turn, `C[C@]12CC[C@H](O)CC1=CC[C@@H]1[C@@H]2CC[C@]2(C)C(n3cnc4ccccc43)=CC[C@@H]12` yielded a relative cell viability of 1.34.

For the compound `COc1cc(OC)c(C(=O)CCCN2CCCC2)c(OC)c1` [Buflomedil HCl], the relative cell viability came to 1.09.

`Cc1cnc(C(=O)NCCc2ccc(S(=O)(=O)NC(=O)NC3CCCCC3)cc2)cn1` [Glipizide] yielded a relative cell viability of 1.11.

As for `CN1CCN(C2=Nc3cc(Cl)ccc3Nc3ccccc32)CC1` [Clozapine], the relative cell viability is 0.666.

Compound `Cc1ncc(C[n+]2csc(CCO)c2C)c(N)n1` [thiamine] gave a relative cell viability of 1.09.

In turn, `CC[C@@H](CO)NCCN[C@@H](CC)CO` [Ethambutol HCl] had a relative cell viability of 1.1.

Take `Cn1cnc2c(F)c(Nc3ccc(Br)cc3F)c(C(=O)NOCCO)cc21`: the relative cell viability amounted to 1.15.
